From publication PMC12820563
This is one part of the list. The list includes weakly bound sequences.

target: T1, MBP-FoxP3dN (UniProt Q99JB6); assay: PD-seq (MBP pull-down with sequencing); settings: 20 mM Tris-HCl pH 7.5, 100 mM NaCl, 1.5 mM MgCl2, 0.4 uM protein, 0.1 uM dsDNA library, 30 min, room temperature, amylose pull-down; high values mean tight binding; double strand, one strand shown
T1 sequence: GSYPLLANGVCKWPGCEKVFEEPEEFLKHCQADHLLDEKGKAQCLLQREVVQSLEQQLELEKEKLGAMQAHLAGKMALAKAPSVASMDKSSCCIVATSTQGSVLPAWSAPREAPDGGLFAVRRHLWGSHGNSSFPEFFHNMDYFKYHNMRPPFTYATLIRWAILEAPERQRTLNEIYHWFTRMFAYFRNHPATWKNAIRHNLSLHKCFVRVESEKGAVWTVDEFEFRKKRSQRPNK

Sequence | binding signal (RPM ratio (pull-down/input))
GATGATTGTTCTCCCAGCTGATGAATTTCGCACGTCGAGTAAACAAATTTTCCTAATCTTTCTGTTCAAGCGCCATCTAC | 1.99
GATGATTGTTCTCCCAGCTGATGAATTTGGATCCTCGAGTAAACAAATTTTCCTAATCTTTCTGTTCAAGCGCCATCTAC | 0.458
GATGATTGTTCTCCCAGCTGATGAATTGGTAGTATCGAGTAAACAAATTTTCCTAATCTTTCTGTTCAAGCGCCATCTAC | 1.51
GATGATTGTTCTCCCAGCTGATGAATTCTGCTGTTCGAGTAAACAAATTTTCCTAATCTTTCTGTTCAAGCGCCATCTAC | 3.41
GATGATTGTTCTCCCAGCTGATGAATTAACCTAGTCGAGTAAACAAATTTTCCTAATCTTTCTGTTCAAGCGCCATCTAC | 0.193
GATGATTGTTCTCCCAGCTGATGAATTCTCCATTTCGAGTAAACAAATTTTCCTAATCTTTCTGTTCAAGCGCCATCTAC | 0.26
GATGATTGTTCTCCCAGCTGATGAATTCAGCCGGTCGAGTAAACAAATTTTCCTAATCTTTCTGTTCAAGCGCCATCTAC | 0.407
GATGATTGTTCTCCCAGCTGATGAATTTTGATCCTCGAGTAAACAAATTTTCCTAATCTTTCTGTTCAAGCGCCATCTAC | 0.498
GATGATTGTTCTCCCAGCTGATGAATTCGTCATTTCGAGTAAACAAATTTTCCTAATCTTTCTGTTCAAGCGCCATCTAC | 1.89
GATGATTGTTCTCCCAGCTGATGAATTTCTCGAGTCGAGTAAACAAATTTTCCTAATCTTTCTGTTCAAGCGCCATCTAC | 0.191
GATGATTGTTCTCCCAGCTGATGAATTTCGCGCGTCGAGTAAACAAATTTTCCTAATCTTTCTGTTCAAGCGCCATCTAC | 1.92
GATGATTGTTCTCCCAGCTGATGAATTTTACTAGTCGAGTAAACAAATTTTCCTAATCTTTCTGTTCAAGCGCCATCTAC | 0.31
GATGATTGTTCTCCCAGCTGATGAATTTCTCTGGTCGAGTAAACAAATTTTCCTAATCTTTCTGTTCAAGCGCCATCTAC | 0.195
GATGATTGTTCTCCCAGCTGATGAATTTAGTCAGTCGAGTAAACAAATTTTCCTAATCTTTCTGTTCAAGCGCCATCTAC | 0.361
GATGATTGTTCTCCCAGCTGATGAATTTTCTCGATCGAGTAAACAAATTTTCCTAATCTTTCTGTTCAAGCGCCATCTAC | 0.22
GATGATTGTTCTCCCAGCTGATGAATTGCCAGGGTCGAGTAAACAAATTTTCCTAATCTTTCTGTTCAAGCGCCATCTAC | 0.649
GATGATTGTTCTCCCAGCTGATGAATTTAGGGGTTCGAGTAAACAAATTTTCCTAATCTTTCTGTTCAAGCGCCATCTAC | 0.677
GATGATTGTTCTCCCAGCTGATGAATTTTGAAGGTCGAGTAAACAAATTTTCCTAATCTTTCTGTTCAAGCGCCATCTAC | 0.308
GATGATTGTTCTCCCAGCTGATGAATTCCGCATATCGAGTAAACAAATTTTCCTAATCTTTCTGTTCAAGCGCCATCTAC | 3.11
GATGATTGTTCTCCCAGCTGATGAATTCCCGACGTCGAGTAAACAAATTTTCCTAATCTTTCTGTTCAAGCGCCATCTAC | 0.241
GATGATTGTTCTCCCAGCTGATGAATTATGGAGGTCGAGTAAACAAATTTTCCTAATCTTTCTGTTCAAGCGCCATCTAC | 0.302

Sequence | binding signal (RPM ratio (pull-down/input))
GATGATTGTTCTCCCAGCTGATGAATTGGTCGGTTCGAGTAAACAAATTTTCCTAATCTTTCTGTTCAAGCGCCATCTAC | 0.409
GATGATTGTTCTCCCAGCTGATGAATTTGTGGACTCGAGTAAACAAATTTTCCTAATCTTTCTGTTCAAGCGCCATCTAC | 4.04
GATGATTGTTCTCCCAGCTGATGAATTTAGAGATTCGAGTAAACAAATTTTCCTAATCTTTCTGTTCAAGCGCCATCTAC | 0.458
GATGATTGTTCTCCCAGCTGATGAATTGTACCTTTCGAGTAAACAAATTTTCCTAATCTTTCTGTTCAAGCGCCATCTAC | 0.527
GATGATTGTTCTCCCAGCTGATGAATTACTGAACTCGAGTAAACAAATTTTCCTAATCTTTCTGTTCAAGCGCCATCTAC | 0.267
GATGATTGTTCTCCCAGCTGATGAATTGGATACGTCGAGTAAACAAATTTTCCTAATCTTTCTGTTCAAGCGCCATCTAC | 0.562
GATGATTGTTCTCCCAGCTGATGAATTATGAGGCTCGAGTAAACAAATTTTCCTAATCTTTCTGTTCAAGCGCCATCTAC | 0.6
GATGATTGTTCTCCCAGCTGATGAATTGCGGTCATCGAGTAAACAAATTTTCCTAATCTTTCTGTTCAAGCGCCATCTAC | 1.01
GATGATTGTTCTCCCAGCTGATGAATTGAATATATCGAGTAAACAAATTTTCCTAATCTTTCTGTTCAAGCGCCATCTAC | 0.6
GATGATTGTTCTCCCAGCTGATGAATTTAGCTCCTCGAGTAAACAAATTTTCCTAATCTTTCTGTTCAAGCGCCATCTAC | 0.927
GATGATTGTTCTCCCAGCTGATGAATTAGTTCCCTCGAGTAAACAAATTTTCCTAATCTTTCTGTTCAAGCGCCATCTAC | 0.617
GATGATTGTTCTCCCAGCTGATGAATTCAGCGAATCGAGTAAACAAATTTTCCTAATCTTTCTGTTCAAGCGCCATCTAC | 0.239
GATGATTGTTCTCCCAGCTGATGAATTAGAGGAGTCGAGTAAACAAATTTTCCTAATCTTTCTGTTCAAGCGCCATCTAC | 0.236
GATGATTGTTCTCCCAGCTGATGAATTCGCGCTCTCGAGTAAACAAATTTTCCTAATCTTTCTGTTCAAGCGCCATCTAC | 0.483
GATGATTGTTCTCCCAGCTGATGAATTCCTCATCTCGAGTAAACAAATTTTCCTAATCTTTCTGTTCAAGCGCCATCTAC | 0.247
GATGATTGTTCTCCCAGCTGATGAATTTGGCTCGTCGAGTAAACAAATTTTCCTAATCTTTCTGTTCAAGCGCCATCTAC | 0.665
GATGATTGTTCTCCCAGCTGATGAATTAAACGACTCGAGTAAACAAATTTTCCTAATCTTTCTGTTCAAGCGCCATCTAC | 0.58
GATGATTGTTCTCCCAGCTGATGAATTGGCTTCCTCGAGTAAACAAATTTTCCTAATCTTTCTGTTCAAGCGCCATCTAC | 0.562
GATGATTGTTCTCCCAGCTGATGAATTGGACGAGTCGAGTAAACAAATTTTCCTAATCTTTCTGTTCAAGCGCCATCTAC | 0.201
GATGATTGTTCTCCCAGCTGATGAATTGCAAAATTCGAGTAAACAAATTTTCCTAATCTTTCTGTTCAAGCGCCATCTAC | 0.636
GATGATTGTTCTCCCAGCTGATGAATTATGAGCTTCGAGTAAACAAATTTTCCTAATCTTTCTGTTCAAGCGCCATCTAC | 0.477

Sequence | binding signal (RPM ratio (pull-down/input))
GATGATTGTTCTCCCAGCTGATGAATTCCACACATCGAGTAAACAAATTTTCCTAATCTTTCTGTTCAAGCGCCATCTAC | 0.467
GATGATTGTTCTCCCAGCTGATGAATTAAAACTCTCGAGTAAACAAATTTTCCTAATCTTTCTGTTCAAGCGCCATCTAC | 0.292
GATGATTGTTCTCCCAGCTGATGAATTCCATTTATCGAGTAAACAAATTTTCCTAATCTTTCTGTTCAAGCGCCATCTAC | 1.46
GATGATTGTTCTCCCAGCTGATGAATTTGCCGCCTCGAGTAAACAAATTTTCCTAATCTTTCTGTTCAAGCGCCATCTAC | 0.88
GATGATTGTTCTCCCAGCTGATGAATTCAGAAAATCGAGTAAACAAATTTTCCTAATCTTTCTGTTCAAGCGCCATCTAC | 0.141
GATGATTGTTCTCCCAGCTGATGAATTTCCTTCGTCGAGTAAACAAATTTTCCTAATCTTTCTGTTCAAGCGCCATCTAC | 0.292
GATGATTGTTCTCCCAGCTGATGAATTCCCTTGCTCGAGTAAACAAATTTTCCTAATCTTTCTGTTCAAGCGCCATCTAC | 0.309
GATGATTGTTCTCCCAGCTGATGAATTCGCGGACTCGAGTAAACAAATTTTCCTAATCTTTCTGTTCAAGCGCCATCTAC | 0.309
GATGATTGTTCTCCCAGCTGATGAATTATCTAACTCGAGTAAACAAATTTTCCTAATCTTTCTGTTCAAGCGCCATCTAC | 0.288
GATGATTGTTCTCCCAGCTGATGAATTGAATGCTTCGAGTAAACAAATTTTCCTAATCTTTCTGTTCAAGCGCCATCTAC | 1.23
GATGATTGTTCTCCCAGCTGATGAATTAGTAAATTCGAGTAAACAAATTTTCCTAATCTTTCTGTTCAAGCGCCATCTAC | 0.68
GATGATTGTTCTCCCAGCTGATGAATTTAGGCCTTCGAGTAAACAAATTTTCCTAATCTTTCTGTTCAAGCGCCATCTAC | 1.79
GATGATTGTTCTCCCAGCTGATGAATTAATGCTGTCGAGTAAACAAATTTTCCTAATCTTTCTGTTCAAGCGCCATCTAC | 1.3
GATGATTGTTCTCCCAGCTGATGAATTTCATATCTCGAGTAAACAAATTTTCCTAATCTTTCTGTTCAAGCGCCATCTAC | 0.703
GATGATTGTTCTCCCAGCTGATGAATTTTTAATATCGAGTAAACAAATTTTCCTAATCTTTCTGTTCAAGCGCCATCTAC | 0.411
GATGATTGTTCTCCCAGCTGATGAATTGATATTGTCGAGTAAACAAATTTTCCTAATCTTTCTGTTCAAGCGCCATCTAC | 1.34
GATGATTGTTCTCCCAGCTGATGAATTCCCGCCTTCGAGTAAACAAATTTTCCTAATCTTTCTGTTCAAGCGCCATCTAC | 2.93
GATGATTGTTCTCCCAGCTGATGAATTTGATCTCTCGAGTAAACAAATTTTCCTAATCTTTCTGTTCAAGCGCCATCTAC | 0.421
GATGATTGTTCTCCCAGCTGATGAATTTAATATGTCGAGTAAACAAATTTTCCTAATCTTTCTGTTCAAGCGCCATCTAC | 3.01
GATGATTGTTCTCCCAGCTGATGAATTCAGTGTCTCGAGTAAACAAATTTTCCTAATCTTTCTGTTCAAGCGCCATCTAC | 1.84
GATGATTGTTCTCCCAGCTGATGAATTCAGTAATTCGAGTAAACAAATTTTCCTAATCTTTCTGTTCAAGCGCCATCTAC | 0.97
